6 molecules from patent US20240181007A1, “COMPOSITIONS AND METHODS FOR TREATING PULMONARY HYPERTENSION” (Acceleron Pharma Inc., priority 2021, published 2024) can be followed below.

The target in assay [1] is T1, activin A (UniProt P08476 311-426).
T1 sequence (looked up): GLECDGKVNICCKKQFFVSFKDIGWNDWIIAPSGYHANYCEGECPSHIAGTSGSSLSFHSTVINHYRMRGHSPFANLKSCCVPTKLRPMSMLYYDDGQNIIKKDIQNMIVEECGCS
As to the kind of experiment: cell-based or functional assay.

For assay [2], the target named is T2, BMP9 (UniProt Q9UK05 320-429).
T2 sequence (looked up): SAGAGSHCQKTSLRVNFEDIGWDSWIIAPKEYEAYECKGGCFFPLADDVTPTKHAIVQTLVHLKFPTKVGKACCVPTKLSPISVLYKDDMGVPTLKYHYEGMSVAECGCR
The experiment in a line: cell-based or functional assay.

The target in assay [3] is T3, GDF11 (UniProt O95390 299-407).
T3 sequence (looked up): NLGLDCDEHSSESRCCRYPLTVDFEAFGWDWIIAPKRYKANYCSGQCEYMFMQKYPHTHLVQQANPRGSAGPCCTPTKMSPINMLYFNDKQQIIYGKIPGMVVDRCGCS
The experiment in a line: cell-based or functional assay.

For assay [4], the target named is T1, activin A. As to the kind of experiment: cell-based or functional assay. The source holds these as a separate data set.
The target in assay [5] is T4, BMP10 (UniProt O95393 317-424).
T4 sequence (looked up): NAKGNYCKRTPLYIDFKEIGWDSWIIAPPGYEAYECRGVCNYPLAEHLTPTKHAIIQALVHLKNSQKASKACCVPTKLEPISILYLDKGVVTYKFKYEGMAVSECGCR
The experiment in a line: cell-based or functional assay.

Assay [6] deals with T2, BMP9. The experiment in a line: cell-based or functional assay. This is another data set of the same source.
The target of assay [7] is T5, GDF8 (UniProt O14793 267-375).
T5 sequence (looked up): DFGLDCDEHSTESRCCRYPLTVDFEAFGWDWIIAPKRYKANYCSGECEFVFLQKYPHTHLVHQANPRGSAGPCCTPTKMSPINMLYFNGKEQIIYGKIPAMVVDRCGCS
The experiment in a line: cell-based or functional assay.

The target in assay [8] is T3, GDF11. The experiment in a line: cell-based or functional assay. The source holds these as a separate data set.
Assay [9] deals with T6, activin B (UniProt P09529 293-407).
T6 sequence (looked up): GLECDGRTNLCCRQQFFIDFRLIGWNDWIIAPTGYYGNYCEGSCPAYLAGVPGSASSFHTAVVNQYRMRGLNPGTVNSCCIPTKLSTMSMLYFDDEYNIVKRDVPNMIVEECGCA
As to the kind of experiment: cell-based or functional assay.

Assay [10] deals with T1, activin A. The experiment in a line: SPR (Biacore), 37 C; Fc fusion captured via anti-Fc, ligand injected. Here is the method: (§1) To determine ligand binding profiles of variant ActRIIB-Fc homodimers, a Biacore™-based binding assay was used to compare ligand binding kinetics of certain variant ActRIIB-Fc polypeptides. ActRIIB-Fc polypeptides to be tested were independently captured onto the system using an anti-Fc antibody. Ligands were then injected and allowed to flow over the captured receptor protein. ActRIIB-G1Fc was used as the control polypeptide.

Assay [11] deals with T6, activin B. Described as above. The protocol:
as §1

For assay [12], the target named is T1, activin A. The experiment in a line: SPR (Biacore), fusion protein captured by anti-Fc antibody, ligand injected, 37 C. Here is the method: (§2) A Biacore™-based binding assay was used to compare the ligand binding kinetics of an ActRIIB-Fc:ActRIIB(L79E)-Fc heterodimer with those of unmodified ActRIIB-Fc homodimer. Fusion proteins were captured onto the system using an anti-Fc antibody. Ligands were then injected and allowed to flow over the captured receptor protein at 37° C. Results are summarized in the table below, in which ligand off-rates (kd) most indicative of effective ligand traps are denoted in bold.
For orientation: Surface plasmon resonance follows binding to a sensor surface in real time, without labels.

Assay [13] addresses T4, BMP10. The description is as above. Here is the method:
as §2

The target of assay [14] is T7, GDF3 (UniProt Q9NR23 251-364).
T7 sequence (looked up): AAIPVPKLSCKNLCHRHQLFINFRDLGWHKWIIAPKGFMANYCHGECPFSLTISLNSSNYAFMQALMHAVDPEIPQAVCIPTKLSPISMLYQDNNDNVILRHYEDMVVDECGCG
Described as above. The protocol: as §2

The target in assay [15] is T8, BMP6 (UniProt P22004 382-513, limits assumed).
T8 sequence (looked up): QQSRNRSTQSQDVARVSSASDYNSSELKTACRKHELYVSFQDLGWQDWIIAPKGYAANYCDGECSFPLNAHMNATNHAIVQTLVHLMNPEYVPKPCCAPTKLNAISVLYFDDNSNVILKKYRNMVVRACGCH
The description is as above. The protocol: as §2

Assay [16] addresses T2, BMP9. The description is as above. Here is the method: as §2
For assay [17], the target named is T5, GDF8. The assay is described as above. The protocol: as §2
Assay [18] addresses T3, GDF11. The description is as above. Here is the method: as §2
In assay [19] the target is T6, activin B. The assay is described as above. The protocol:
as §2

The target in assay [20] is T1, activin A. The experiment in a line: SPR (Biacore), 37 C; Fc fusion captured via anti-Fc, ligand injected; ka/kd cell reads Transient* (indeterminate, transient interaction). Here is the method:
as §1

B1: ActRIIB-G1Fc (Fc fusion)
chain: GRGEAETRECIYYNANWELERTNQSGLERCEGEQDKRLHCYASWRNSSGTIELVKKGCWLDDFNCYDRQECVATEENPQVYFCCCEGNFCNERFTHLPEAGGPEVTYEPPPTAPTG[human IgG1 Fc and a few adjoining residues left out here]
notes: Homodimeric Fc fusion, mature form as purified from CHO cells; also called ActRIIB-Fc; ActRIIB-Fc homodimer
Broadly, the Kd is the constant that tells how readily two partners part at equilibrium. A high value points to weaker binding. The term koff denotes a measure of how fast the partners let go of each other. A higher koff goes with fast dissociation. Broadly, the kon is a measure of how fast the partners come together. For B1, the “IC50 (ng/ml), A204 CAGA12 luciferase reporter assay” value is 8 ng/mL in assay [1], 31 ng/mL in assay [2] and 9 ng/mL in assay [3]. Further, the “IC50 (nM), A204 CAGA12 luciferase reporter assay” value (shortened to “IC50 (nM)”) is 0.05 nM in assay [4]; 0.036 nM in assay [5]; 1.82 nM in [6]; 0.95 nM in assay [7]; 0.12 nM in [8]; 0.067 nM in assay [9]. The dissociation constant Kd in assay [10] amounted to 14.6 pM; in [11], 8.5 pM; in [12], 25 pM; in [13] it was 4 pM; in assay [14], 1500 pM; in [15], 56 pM. The Kd amounted to 250 pM in assay [16], 70 pM in assay [17], 4 pM in assay [18] and 8 pM in assay [19]. Moreover, the koff in [10] amounted to 0.000114 s⁻¹; in assay [11], 6.17e-05 s⁻¹; in assay [12], 0.00019 s⁻¹; in assay [13], 0.0002 s⁻¹; in [14], 0.0022 s⁻¹; in assay [15], 0.0074 s⁻¹. For the same molecule, the koff in assay [16] was 0.0013 s⁻¹; in assay [17] it was 0.00026 s⁻¹; in [18] it was 0.00017 s⁻¹; in [19] it was 6.6e-05 s⁻¹. In addition, the kon was found to be 7.82e+06 M⁻¹ s⁻¹ in [10]; 7.22e+06 M⁻¹ s⁻¹ in assay [11]; 7.4e+06 M⁻¹ s⁻¹ in [12]; 5.1e+07 M⁻¹ s⁻¹ in [13]; 1.4e+06 M⁻¹ s⁻¹ in assay [14]; 1.3e+08 M⁻¹ s⁻¹ in assay [15]. Besides, the on-rate (kon) is 5e+06 M⁻¹ s⁻¹ in assay [16], 3.8e+06 M⁻¹ s⁻¹ in assay [17], 4.1e+07 M⁻¹ s⁻¹ in [18] and 8.1e+06 M⁻¹ s⁻¹ in assay [19].

B2: ActRIIB(L79H-F82K)-G1Fc (Fc fusion)
chain: GRGEAETRECIYYNANWELERTNQSGLERCEGEQDKRLHCYASWRNSSGTIELVKKGCWHDDKNCYDRQECVATEENPQVYFCCCEGNFCNERFTHLPEAGGPEVTYEPPPTAPTG[human IgG1 Fc and a few adjoining residues left out here]
notes: Homodimeric Fc fusion; substitutions already in the entry
As for B2, the Kd in assay [20] worked out at 11700 pM; in assay [11], 19.6 pM. Besides, the “IC50 (nM)” value in assay [5] was over 100 nM; in assay [8] it was over 100 nM; in assay [9], 0.1 nM. In [11], the dissociation rate constant (koff) was 0.000316 s⁻¹. In [11], the kon was 1.61e+07 M⁻¹ s⁻¹.

B3: ActRIIB(L79H)-G1Fc (Fc fusion)
chain: GRGEAETRECIYYNANWELERTNQSGLERCEGEQDKRLHCYASWRNSSGTIELVKKGCWHDDFNCYDRQECVATEENPQVYFCCCEGNFCNERFTHLPEAGGPEVTYEPPPTAPTG[human IgG1 Fc and a few adjoining residues left out here]
notes: Homodimeric Fc fusion; substitution already in the entry
For the molecule B3, the Kd is 9190 pM in [20] and 16.9 pM in assay [11]. For the same molecule, the “IC50 (nM)” value in [4] was over 10 nM; in assay [5], over 100 nM; in [7], 5.7 nM; in assay [8], 0.24 nM; in assay [9], 0.07 nM. In addition, the koff in [11] came out at 0.000267 s⁻¹. In assay [11], this molecule came in with a kon of 1.58e+07 M⁻¹ s⁻¹.

B4: ActRIIB(K55E)-G1Fc (Fc fusion)
chain: GRGEAETRECIYYNANWELERTNQSGLERCEGEQDERLHCYASWRNSSGTIELVKKGCWLDDFNCYDRQECVATEENPQVYFCCCEGNFCNERFTHLPEAGGPEVTYEPPPTAPTG[human IgG1 Fc and a few adjoining residues left out here]
notes: Homodimeric Fc fusion; substitution already in the entry; also called ActRIIB(K55E)-Fc
On to B4, for which the entries for the “IC50 (ng/ml), A204 CAGA12 luciferase reporter assay” value in assay [1], in [2] and in assay [3] were 19 ng/mL, 290 ng/mL and 14 ng/mL, respectively.

B5: ActRIIB(L79H-F82I)-G1Fc (Fc fusion)
chain: GRGEAETRECIYYNANWELERTNQSGLERCEGEQDKRLHCYASWRNSSGTIELVKKGCWHDDINCYDRQECVATEENPQVYFCCCEGNFCNERFTHLPEAGGPEVTYEPPPTAPTG[human IgG1 Fc and a few adjoining residues left out here]
notes: as for B2
Regarding B5, the Kd in assay [20] was found to be 3380 pM; in assay [11], 15.8 pM. The “IC50 (nM)” value in assay [4] is over 100 nM; in assay [5], over 100 nM; in [7], over 10 nM; in assay [8] it was 0.36 nM; in [9], 0.15 nM. Also, the koff in [11] turned out to be 0.000224 s⁻¹. The kon in assay [11] came to 1.42e+07 M⁻¹ s⁻¹.

B6: ActRIIB(F82T)-G1Fc (Fc fusion)
chain: GRGEAETRECIYYNANWELERTNQSGLERCEGEQDKRLHCYASWRNSSGTIELVKKGCWLDDTNCYDRQECVATEENPQVYFCCCEGNFCNERFTHLPEAGGPEVTYEPPPTAPTG[human IgG1 Fc and a few adjoining residues left out here]
notes: as for B3
Regarding B6, the “IC50 (nM)” value in assay [4] was found to be 0.1 nM; in [5], 0.07 nM; in assay [7], 2.17 nM; in assay [8], 0.27 nM; in assay [9] it was 0.09 nM. In addition, the Kd in assay [10] amounted to 10.9 pM; in assay [11], 12 pM. The results for the koff in assay [10] and in assay [11] were 0.000204 s⁻¹ and 0.000223 s⁻¹, respectively. The kon came out at 1.87e+07 M⁻¹ s⁻¹ in assay [10] and 1.85e+07 M⁻¹ s⁻¹ in [11].
